This is an account of results in article PMC10726135.

Some of the results follow. At the low end of the ranking, values are background and their order means little. Measured with an extract: partners may take part in the binding.

In this experiment the target is T1, HNF4alpha8 (COS-7 nuclear extract) (UniProt P41235-5).
T1 sequence: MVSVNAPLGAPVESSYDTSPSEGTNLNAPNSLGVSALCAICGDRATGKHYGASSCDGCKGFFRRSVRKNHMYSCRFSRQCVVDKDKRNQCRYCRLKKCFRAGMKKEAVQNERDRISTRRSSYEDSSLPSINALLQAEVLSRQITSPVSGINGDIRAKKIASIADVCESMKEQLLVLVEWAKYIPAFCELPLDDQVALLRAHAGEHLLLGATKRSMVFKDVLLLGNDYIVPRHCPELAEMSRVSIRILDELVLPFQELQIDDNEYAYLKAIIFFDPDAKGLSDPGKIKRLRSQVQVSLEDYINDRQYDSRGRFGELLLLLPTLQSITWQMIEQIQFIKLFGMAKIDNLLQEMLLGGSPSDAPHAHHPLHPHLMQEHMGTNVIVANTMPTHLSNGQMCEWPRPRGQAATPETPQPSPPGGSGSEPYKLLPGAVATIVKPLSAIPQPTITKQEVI
Description: protein-binding microarray. Conditions: COS-7 nuclear extract on double-stranded Agilent 4x180k PBM; binding buffer, salt, pH and temperature not given; high values mean tight binding; double strand, one strand shown; sequences stand for … in …GCCTAGGGAGATTAGAGTATCGGTCGA
Turning to CCTCCTGCTGCAGCTCTGGGCCCCTCGGCC, the binding signal (log2 normalized intensity) was -1.31.

For the sequence AGCGCTTATCTGGAAACTATTCCTTTGTTT, the binding signal (log2 normalized intensity) was -0.774.

As to TAATAACACTCCCATCTGCCATCAGTATCC, the binding signal (log2 normalized intensity) is -1.29.

For GAACCTCCCTCCCCATCTCCCCAGACACTC, the binding signal (log2 normalized intensity) worked out at 5.39.

With GCAAACAGAGATAGTTTGACTTTCTCTCTT, the binding signal (log2 normalized intensity) was -0.618.

Regarding CCTCTGTCTCTCAGGCACAGCTCGACCTTT, the binding signal (log2 normalized intensity) stood at 6.7.

As for GGGGGAAGTGTGGTCAAGGGTCAGTTTCTG, the binding signal (log2 normalized intensity) turned out to be 4.48.

As for GCCCTTTGTCCTATGACTCTCTCAACACTG, the binding signal (log2 normalized intensity) is 3.47.

In the case of TGGACTCCTGTTTGAACAAACCAGCTTTGA, the binding signal (log2 normalized intensity) was -0.681.

On to AGAAGTTGGACTTTGTACATTCCAAATACG, for which the binding signal (log2 normalized intensity) was 7.64.

For TGAAGACCTGTACAGGGACTGTGTCAACAA, the binding signal (log2 normalized intensity) is 0.00948.

On to CGAGTTCCCTCGATTATTTCAGCCAGGGCT, for which the binding signal (log2 normalized intensity) was -1.37.

For the sequence CGCCCTCAGTGTTTTCACTGCTGGGTTTCT, the binding signal (log2 normalized intensity) came out at 0.788.

For the sequence TTATGGCTGGTTTGGTCTTTTATCTAGACC, the binding signal (log2 normalized intensity) worked out at 1.81.

As for CTTTAGGAGAAGGAAAAAAATAGGAGACTG, the binding signal (log2 normalized intensity) is -1.24.

Take CGGGCGGTCGGAGTCCACGTCCTCCCCCAG: the binding signal (log2 normalized intensity) came to 3.55.

Turning to ACTCGTGGCATTTTTGCCCCTGCCCTAGAG, the binding signal (log2 normalized intensity) amounted to 2.74.

For the sequence ATATCAGGTATTGCCCAGTATTGATGTGAG, the binding signal (log2 normalized intensity) came out at 0.686.

Turning to CTCTAGGGTAGATAAGGATGGATCAAAGGA, the binding signal (log2 normalized intensity) is -0.174.

In the case of CAGTCTCTTGAAATCCCAAGCAGTGATATT, the binding signal (log2 normalized intensity) worked out at 0.149.

Regarding AAAAGGATGCTAGGTTTGTGAGTCCAAAGG, the binding signal (log2 normalized intensity) was found to be 5.08.

On to GGCTAGACTTTAACCCCCTTGTCTTCCTCA, for which the binding signal (log2 normalized intensity) is 4.16.

Consider ACTATTATTAGAGTCCCTTTTTTAGACAAG, for which the binding signal (log2 normalized intensity) was -0.146.

With GACCCTTGGCCTCTACAGCTACTCCAGCTG, the binding signal (log2 normalized intensity) is 4.23.

Consider TAAGGATGCGGACTCCTCCCTCAGCCTGAA, for which the binding signal (log2 normalized intensity) is -1.25.

CAGCCAGAGGCCTTATCTGGCCGCCTAATC: the binding signal (log2 normalized intensity) is -1.29.

For AGATTTGCAGCTCAAAGTGCTTTTCAATCT, the binding signal (log2 normalized intensity) is -1.44.

GAGTAAAGGTCACTCTTGCTATGCAAACAG: the binding signal (log2 normalized intensity) worked out at 3.2.

As for GCCGCGCGGCTTCAGAGGCCAGCAGTGCTT, the binding signal (log2 normalized intensity) is -1.28.

For the sequence CTTTCCGTACTTTTCATCTGATCAGTGCCC, the binding signal (log2 normalized intensity) was determined as 2.53.

Take CCAGCGAGGTTATTTCACCCCAGCAAACAG: the binding signal (log2 normalized intensity) turned out to be 1.22.

As for TCAGAGGCTCACAGAGAGGCTTCTGGCCAG, the binding signal (log2 normalized intensity) is -1.24.

Turning to TCATTGCAATTACTCAATAACCACATGAAT, the binding signal (log2 normalized intensity) is -1.32.

AGCGGGGTTTGAATCCCGGGAATCCTCAGC: the binding signal (log2 normalized intensity) was -1.32.

Turning to GCACCGTGTGCTTTGTAGCACTTTGGACCT, the binding signal (log2 normalized intensity) came to 7.16.

As for GACTTTCAACAGAGGGCCTCTAGCCCAATA, the binding signal (log2 normalized intensity) is -1.33.

As to CCCTCGGGCCGGGAAACGCCCTCGGCGCGC, the binding signal (log2 normalized intensity) amounted to 1.34.

As for CCTTGACACATCTGATTAGAGGCTCAGGTA, the binding signal (log2 normalized intensity) is -1.24.

As to ATTGGCTTGGCTGTGTCCCTTGACCAAAGG, the binding signal (log2 normalized intensity) turned out to be 2.62.

As to AATACCTGCCGCGCGGGGCGCCTCCCGGAG, the binding signal (log2 normalized intensity) is -1.22.

In the case of CAAATGACAGAAGCAGGACTTAAACACCAG, the binding signal (log2 normalized intensity) is -1.25.

In the case of TGGGAGACATTCCTTCAGCGTGAACTTTGA, the binding signal (log2 normalized intensity) came to 7.24.

As to GGCTTGGCAGTCTGGTGCCAAGGAGCCTCT, the binding signal (log2 normalized intensity) is -1.18.

Turning to TTATCTCCCCAGCTTACAATTCCAATGAGA, the binding signal (log2 normalized intensity) is 0.718.

With GCCACACTGGTTCCTGCACCCGGGCAGCCT, the binding signal (log2 normalized intensity) is -1.08.

As to AAGACATTCCAAGAAGAGCCAATAGTACAC, the binding signal (log2 normalized intensity) is -0.652.

Turning to ATTACATAGGAGGCTGCCTCTCTGTGCTGG, the binding signal (log2 normalized intensity) was -1.34.

Regarding TATGGCCGGCCCCTGGAATGCTGAGGGGGG, the binding signal (log2 normalized intensity) was -1.39.

Take GAAAATGTCGTTTTCCCGGTTTGTTCCATG: the binding signal (log2 normalized intensity) was determined as 1.94.

GGTTTTACCCTGGGAATGGAGAGAGAGAGA: the binding signal (log2 normalized intensity) is -1.45.

For TAGCTGCTAGAGAAAAAGAAAAGCCTTGTG, the binding signal (log2 normalized intensity) is -1.32.

On to AAATGTACTGGATATAGCCAGATGTCCTTT, for which the binding signal (log2 normalized intensity) stood at 2.37.

Turning to CGCCGGAGAATTAAACTGCCGCGCCACTGC, the binding signal (log2 normalized intensity) is -1.34.

As to TTTTGCTCTGATCCTAGTCTTTGCCCCACT, the binding signal (log2 normalized intensity) is 3.94.

With ACAAGTTATTACCGTGATGTTCGTTTGGAT, the binding signal (log2 normalized intensity) was 1.36.

On to CCCCTATTAACCAAAGCTACACAGATAAGC, for which the binding signal (log2 normalized intensity) is -1.43.

With GTTCGGGGGACGGAGAGCAGGGCGTGGACT, the binding signal (log2 normalized intensity) stood at 1.78.

Take CTTATCACTTGGTGGACATGGTTCACTGAT: the binding signal (log2 normalized intensity) amounted to 1.8.

On to AAGGTCCCCACCACAAAGGCCAGAGAAAGA, for which the binding signal (log2 normalized intensity) amounted to 2.07.

As to GGGCAGCCCTGTTTAGGAGGAAATAGAGAG, the binding signal (log2 normalized intensity) was -1.37.

Take CAGGAGGACTGGATCAATGGATCCACTCAG: the binding signal (log2 normalized intensity) is -1.32.

Regarding ACCCAAGATCAAAGAGAAAGTAAGTGCACA, the binding signal (log2 normalized intensity) is -0.546.

With CCTGGAAAAGTCTCAGGGGCCTTGCAATGA, the binding signal (log2 normalized intensity) was -1.22.

TCAAGAGAATTACAAACAGCCCTGACATTC: the binding signal (log2 normalized intensity) is -1.2.

Turning to CTCCCTGGGCAGTGCAGTATGCGCTCTGGG, the binding signal (log2 normalized intensity) is -1.34.

As to AATTCCCAAGGGTATGTTTGTGATATTGTG, the binding signal (log2 normalized intensity) worked out at 1.53.

TGTCAATGACCCTAATGGGGTACTTGAACC: the binding signal (log2 normalized intensity) is 3.26.

For the sequence GTCCAGTCACAGCAAAAGTAGCCTGGTCAG, the binding signal (log2 normalized intensity) is -1.34.

Consider AAGCAGCCCAACAGCATTAAGCTGAGGCAG, for which the binding signal (log2 normalized intensity) is -1.24.

Take GATGTTTATACAGCCTTGGAAGACACAGAT: the binding signal (log2 normalized intensity) was -1.35.

In the case of CTGTGTCACGTACCGGCTAGACAAACAGCT, the binding signal (log2 normalized intensity) is -1.37.

As to TCCCCCCTCCTCATTGAGAGTTTTAGGCTG, the binding signal (log2 normalized intensity) is 2.42.
